# The list shows a part of the results. The data describe in vitro nicking of single-stranded DNA by Rep domains (1 h at 37 °C, 3 µM enzyme); the outer parts of the 90-letter strands are left off. The score is log2 (uncut reads / reads without enzyme); more negative means more cut, near 0 not cut, and no call is made. Counts are relative to all reads; values above 0 arise when much of the pool is cut.
# Tests used:
# Test in all cases: uncleaved DNA left, log2 of reads against the no-enzyme library (log2 ratio); higher = less cleavage (more negative = more Rep cleavage of the k-mer); sequences stand for … in CTCGTCCG…ACCGGAGA
# [1] = system: T1, Rep nickase domain of Muscovy duck circovirus
# T1 sequence (residues 1-111, tag not shown): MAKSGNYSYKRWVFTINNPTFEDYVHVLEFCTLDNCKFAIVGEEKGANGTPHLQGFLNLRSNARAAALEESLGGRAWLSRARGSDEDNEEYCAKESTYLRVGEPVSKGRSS
# Protocol: (§1)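 A pool of 90-nt single-stranded DNAs with seven random bases just before the constant AC of the nick site (name = the seven bases) was cut by 3 µM recombinant His6-SUMO-tagged Rep nickase domain (300 nM DNA, 50 mM HEPES pH 8.0, 50 mM NaCl, 1 mM MnCl2, 1 h, 37 °C, three replicates). Uncut DNA was amplified and sequenced.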
# [2] = system: T2, Rep nickase domain of banana bunchy top virus
# T2 sequence (residues 1-94, tag not shown): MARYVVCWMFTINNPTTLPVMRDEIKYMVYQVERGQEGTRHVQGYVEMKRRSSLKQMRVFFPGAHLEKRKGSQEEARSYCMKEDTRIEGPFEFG
# Protocol: as §1
# [3] = system: T3, Rep nickase domain of cabbage leaf curl virus
# T3 sequence (residues 1-116, tag not shown): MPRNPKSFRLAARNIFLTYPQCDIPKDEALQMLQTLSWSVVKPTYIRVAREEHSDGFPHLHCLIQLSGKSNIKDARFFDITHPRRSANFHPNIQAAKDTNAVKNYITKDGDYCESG
# Protocol: as §1
# [4] = system: T4, Rep nickase domain of chickpea chlorotic dwarf virus
# T4 sequence (residues 1-124, tag not shown): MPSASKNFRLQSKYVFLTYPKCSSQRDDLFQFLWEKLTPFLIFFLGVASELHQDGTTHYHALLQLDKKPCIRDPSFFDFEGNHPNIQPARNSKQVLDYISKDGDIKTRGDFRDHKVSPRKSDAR
# Protocol: as §1
# [5] = system: T5, Rep nickase domain of faba bean necrotic yellows virus
# T5 sequence (residues 1-98, tag not shown): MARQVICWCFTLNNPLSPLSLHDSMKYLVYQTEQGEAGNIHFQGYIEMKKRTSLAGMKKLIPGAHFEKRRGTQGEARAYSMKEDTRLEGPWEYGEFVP
# Protocol: as §1
# [6] = system: T6, Rep nickase domain of maize striate mosaic virus
# T6 sequence (residues 1-117, tag not shown): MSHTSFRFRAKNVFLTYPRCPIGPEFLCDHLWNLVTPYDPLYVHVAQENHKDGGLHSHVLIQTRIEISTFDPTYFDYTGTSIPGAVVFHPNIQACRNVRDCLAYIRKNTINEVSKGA
# Protocol: as §1
# [7] = system: T7, Rep nickase domain of porcine circovirus 2
# T7 sequence (residues 2-116, tag not shown): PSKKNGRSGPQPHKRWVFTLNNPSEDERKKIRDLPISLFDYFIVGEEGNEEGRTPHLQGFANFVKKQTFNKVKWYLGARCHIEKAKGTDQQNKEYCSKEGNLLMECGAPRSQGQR
# Protocol: as §1
# [8] = system: T8, Rep nickase domain of tomato golden mosaic virus
# T8 sequence (residues 1-124, tag not shown): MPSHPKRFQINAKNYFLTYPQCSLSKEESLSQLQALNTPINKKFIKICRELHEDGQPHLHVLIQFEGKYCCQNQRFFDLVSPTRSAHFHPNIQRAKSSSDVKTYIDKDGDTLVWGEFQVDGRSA
# Protocol: as §1
# [9] = system: T9, Rep nickase domain of tomato yellow leaf curl virus
# T9 sequence (residues 1-136, tag not shown): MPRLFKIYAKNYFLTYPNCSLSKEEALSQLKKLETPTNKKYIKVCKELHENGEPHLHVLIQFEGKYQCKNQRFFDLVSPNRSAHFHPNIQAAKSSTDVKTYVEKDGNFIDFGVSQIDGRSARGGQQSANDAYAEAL
# Protocol: as §1
# [10] = system: T10, Rep nickase domain of wheat dwarf virus
# T10 sequence (residues 1-137, tag not shown): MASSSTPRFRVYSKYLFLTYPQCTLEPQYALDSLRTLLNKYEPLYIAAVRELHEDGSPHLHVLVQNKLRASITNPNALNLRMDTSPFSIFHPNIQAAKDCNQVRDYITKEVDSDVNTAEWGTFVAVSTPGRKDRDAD
# Protocol: as §1
Sequence,uncleaved DNA left (log2) [1],uncleaved DNA left (log2) [2],uncleaved DNA left (log2) [3],uncleaved DNA left (log2) [4],uncleaved DNA left (log2) [5],uncleaved DNA left (log2) [6],uncleaved DNA left (log2) [7],uncleaved DNA left (log2) [8],uncleaved DNA left (log2) [9],uncleaved DNA left (log2) [10]
TAGGCCG,0.0397,0.0398,-0.861,-0.642,-0.036,-1.18,0.0607,-0.133,0.00316,-0.0189
CGGGATC,-0.0138,-0.118,0.59,1.5,-0.131,1.88,0.116,-0.0567,-0.149,-0.0162
GTAGTGC,-0.102,0.0209,-0.04,0.0189,-0.00866,-0.459,-0.105,-0.00778,0.0269,-0.039
CATATGA,-0.0118,-0.0121,-0.139,-0.0933,-0.0333,-0.924,0.0665,0.0768,0.0448,-0.0517
GGGCCGG,-0.0549,0.0762,0.849,1.86,0.0719,2.25,0.128,0.155,0.0199,0.0599
GGAGTCA,0.00826,0.145,0.828,1.73,-0.00478,2.08,0.161,-0.000835,0.135,0.181
GTAAGCC,0.0486,0.0482,-1.56,-1.85,-0.0636,0.423,0.0736,-0.058,0.00581,-0.224
TCAGCTG,-0.108,0.0148,0.194,1.4,-0.18,1.67,0.133,0.0235,-0.215,-0.0904
CACCGTT,0.101,-0.131,-0.494,-2.4,-0.0343,-0.892,-2.57,-0.129,-0.0645,-0.133
ATTTGTA,-0.531,-0.32,-0.468,-1.52,-0.00996,-1.23,-0.901,-0.122,-0.0249,-0.152
ACTGATA,-0.0335,0.00207,-0.247,-0.00865,0.00703,0.444,-0.15,0.0378,-0.145,-0.056
TTACAAC,-0.0658,-0.0181,-0.142,-2.6,0.0141,-0.297,-0.0291,-0.0282,-0.0965,-0.0259
GCTATGC,0.097,0.0384,-0.374,-0.132,0.0823,-0.881,0.136,0.00976,0.0251,-0.0515
CAACTTC,-0.0791,0.0192,-0.215,-1.83,0.123,-0.862,-0.209,-0.0305,0.153,-0.019
GAGCCTA,0.0313,0.147,0.238,-0.136,0.0749,1.1,-0.273,0.0417,0.134,0.146
GCACTCG,-0.0859,-0.113,-0.863,-0.525,-0.0108,-1.12,0.0853,-0.139,-0.131,-0.117
GAGAACT,-0.0648,-0.16,0.418,-0.838,-0.208,1.59,-2.66,-0.0242,0.0427,0.149
CTTAACC,-0.118,0.159,-0.268,-1.73,0.132,-0.762,-0.581,0.013,0.0911,0.0915
CTACGTT,-0.000469,-0.224,-0.99,-2.77,0.0359,-1.01,-0.662,-0.231,-0.0229,-0.742
ATATAAT,-3.34,-0.183,-1.93,-2.81,-0.0856,-0.806,-3.33,-0.223,-0.0705,-0.364

Sequence,uncleaved DNA left (log2) [1],uncleaved DNA left (log2) [2],uncleaved DNA left (log2) [3],uncleaved DNA left (log2) [4],uncleaved DNA left (log2) [5],uncleaved DNA left (log2) [6],uncleaved DNA left (log2) [7],uncleaved DNA left (log2) [8],uncleaved DNA left (log2) [9],uncleaved DNA left (log2) [10]
TGAACAT,-0.00904,-0.0111,0.743,1.69,-0.0202,1.98,0.229,-0.0291,0.103,0.0755
ATAACTA,-0.0375,0.0505,-0.353,-2.14,-0.000578,-0.704,-0.123,0.0427,-0.0279,-0.0251
GGCTCAG,0.0738,0.0655,0.26,0.78,0.0571,0.832,0.182,0.043,0.0758,0.177
CTTCTAG,0.00754,0.0501,-0.836,-0.518,-0.026,-1.23,0.133,-0.0221,0.187,0.086
CGCCTGG,0.0038,0.0242,0.0568,0.338,0.0048,0.377,0.115,-0.0457,-0.0101,0.142
ACATAGG,0.0779,0.129,-0.701,-0.382,0.0646,-1.07,0.204,0.0351,0.00821,-0.0218
GTGTCCA,-0.00156,0.104,0.263,0.908,-0.017,1.79,0.0843,0.114,0.0819,0.141
GATGTGT,-0.000937,-0.0041,0.00962,-0.151,0.0633,-0.455,-0.0106,0.0375,0.13,0.0701
GAGTACT,-2.27,-2.57,-0.0588,-1.36,-2.53,1.68,-3.15,-0.155,0.0558,0.126
GCGGACT,-0.0629,-0.00196,0.603,1.83,-0.0578,2.18,0.163,-0.103,-0.0676,-0.0149
AGTATCG,-0.0573,-0.106,-0.848,-0.699,0.02,-1.29,0.0781,-0.101,-0.095,-0.124
TAATAGT,-4.13,-3.09,-5.37,-3.2,-0.732,-4.23,-4.51,-4.4,-3.61,-4.87
AGGCGAT,0.0991,0.0607,0.289,1.54,-0.0345,1.79,0.235,0.11,-0.186,0.03
TACCCCG,-0.209,-0.166,-1.1,-1.03,-0.149,-1.01,-1.65,-0.21,-0.295,-0.259
CTCTCCT,-0.281,-0.221,-0.246,-1.18,-0.0965,0.232,-0.701,-0.309,-0.198,-0.123
CTCGAAC,-0.0298,-0.153,-0.0472,-0.475,-0.0818,-0.731,0.0241,-0.0499,-0.076,-0.194
CGAGATG,0.0271,0.132,0.188,0.821,-0.00327,1.21,0.257,0.27,0.0103,0.0666
TAGTGGT,-0.813,-1.81,-1.93,-2.15,-1.27,0.784,-3.84,-0.142,0.0446,-0.0681
GAGTTTT,-2.49,-2.52,-0.073,-1.92,-2.64,1.16,-3.43,-0.0527,0.151,-0.0219
GCCTAGG,0.0442,0.0136,0.352,0.997,-0.0266,0.872,0.126,0.138,0.0549,0.0891

Sequence,uncleaved DNA left (log2) [1],uncleaved DNA left (log2) [2],uncleaved DNA left (log2) [3],uncleaved DNA left (log2) [4],uncleaved DNA left (log2) [5],uncleaved DNA left (log2) [6],uncleaved DNA left (log2) [7],uncleaved DNA left (log2) [8],uncleaved DNA left (log2) [9],uncleaved DNA left (log2) [10]
TGTTTCA,-0.0357,0.0268,0.254,0.224,-0.0439,1.26,0.00328,0.0495,0.0704,-0.0245
AAACTCC,-0.0278,-0.0281,0.0689,-0.187,0.0894,0.718,0.156,0.0384,0.0399,0.142
TCGAGAG,0.21,0.169,-0.109,0.0021,0.0729,-0.693,0.144,0.176,0.137,0.0651
GGAAGTG,0.0191,-0.0419,-0.0113,0.108,0.0498,-0.204,0.167,-0.0895,-0.0497,0.0211
CAGCGAC,0.0786,0.115,-0.0515,0.57,0.155,0.632,0.146,0.031,0.0179,0.039
TTCCCGA,-0.145,-0.148,-0.139,-0.538,-0.217,-0.814,-0.262,-0.172,-0.0624,-0.111
AGTGTCA,-0.00588,0.00191,0.159,0.34,-0.0265,1.01,-0.251,0.0751,-0.0452,-0.0221
GCGTTCC,-0.0761,-0.0464,0.225,0.577,-0.105,0.698,0.0722,-0.0782,0.0301,0.00164
GGACTCC,-0.131,0.037,0.606,1.51,-0.12,1.94,0.0355,-0.207,-0.0332,0.0527
GCACCAT,-0.00148,-0.0565,0.189,0.411,-0.0431,0.51,-0.0306,-0.124,-0.144,0.0387
CACGTCA,0.0824,0.0991,-0.0938,-1.69,0.0591,-0.534,-0.0151,-0.059,0.0762,0.0385
CGCACGA,-0.0479,-0.00296,-0.109,-0.0602,0.01,-0.416,-0.0988,-0.0562,0.0572,-0.116
GGAAATG,0.155,0.139,0.672,1.61,0.0547,1.7,0.249,-0.0172,-0.00963,0.0748
CAAGAGC,0.0511,0.101,-0.273,-0.272,0.0426,-1.12,0.225,0.156,0.0789,0.0334
GTCGCTT,0.0113,-0.148,0.25,0.302,0.00565,1.11,-0.0081,-0.086,-0.214,-0.0606
GTCAAAT,0.0821,0.153,0.398,0.905,0.0158,1.69,0.0789,0.0795,-0.00956,0.0462
AGGGGTA,0.0343,0.00108,0.209,1.15,0.0956,1.5,0.222,0.162,-0.0761,0.102
CAACTCA,-0.0564,-0.0428,-0.293,-2.6,-0.0566,-0.605,-0.181,-0.144,-0.043,-0.109

# From the supplement of paper PMC7826260
